Results from PubChem BioAssay AID463173 (ICCB-Longwood Screening Facility, Harvard Medical School, 2010).
Among all 52,000 compounds or so, about 4,300 (8.3%) were called active. No stated cut-off is given here; in the data, active means survival mostly below about 52% (no sharp cut-off); inactive means mostly above about 56%. The list shows a part of the results.

What follows are molecules tested on DeltatarO mutant (assay: growth inhibition of S. aureus wild type versus tarO mutant, primary screen, teichoic acid synthesis inhibitors, RN4220, OD600 (AID 463173)). Details: OD600, 18 h, stronger effect = lower value, screened at 18.75 µg/mL (by protocol).
O=C(CSc1nnc(-c2ccccc2)o1)N1CCCc2ccccc21 was tested, and the survival was inactive: 80%. For CCOc1ccccc1CNC(=O)c1cnc2sc(N3CCC(C)CC3)nn2c1=O, the survival was inactive: 87%. In the case of COc1ccc(C(=O)Nc2nnc(S(=O)(=O)N3CCOCC3)s2)cc1, the survival was inactive: 99%. CCc1ccc(-c2csc(-c3cc4cc(Br)ccc4oc3=O)n2)cc1 was tested, and the survival was inactive: 118%. For Cc1nn(C(C)C(=O)NCc2cccc(F)c2)c(=O)c2c1sc1ccccc12 (centres undefined), the survival was inactive: 59%. Cc1nc2c3ccccc3nc(NNC(=O)CCC(=O)N3CCN(c4ccccc4F)CC3)n2n1 was tested, and the survival was inactive: 79%. With COc1cc(C2c3c(oc4ccc(C)cc4c3=O)C(=O)N2Cc2ccc(F)cc2)ccc1O (centres undefined) the survival was inactive: 87%. Cc1ccc(C(=O)Nc2ccccc2F)cc1S(=O)(=O)N1CCOCC1 was tested, and the survival was inactive: 52%. Cc1ccc(NC(=O)CCC(=O)N2CCOc3ccccc32)c(Cl)c1 was tested, and the survival was inactive: 68%. For CCCC1(C(=O)OCC)NC(c2ccc(N(C)C)cc2)C2C(=O)N(c3ccc(OCC)cc3)C(=O)C21 (centres undefined), the survival was inactive: 99%. In the case of Cc1cccc(CNC(=O)C2CCN(c3nc4ccc(Cl)cc4[nH]3)CC2)c1, the survival was inactive: 70%. For Cc1cc(C)c2c(C)c(C(=O)N3CCC(c4nc5ccccc5s4)CC3)oc2c1, the survival was inactive: 68%. For COc1ccc(CN(CC(=O)NC2CCCC2)C(=O)Cn2nnc(-c3ccc(OC)cc3)n2)cc1, the survival was inactive: 97%. Cc1ccc(S(=O)(=O)CCc2nnc(NC(=O)C3CCCN3C(=O)NC3CCCCC3)s2)cc1 (centres undefined) was tested, and the survival was inactive: 72%. With Cn1cccc1C(C(=O)NC1CCCCC1)N(C(=O)Cc1cccs1)c1ccccc1 (centres undefined) the survival was inactive: 75%. With CCOC(=O)c1c(C)[nH]c(C)c1S(=O)(=O)NCC(=O)N(C)c1ccc(C)c(C)c1 the survival was inactive: 124%. For O=C(Nc1c(C(=O)c2ccccc2)oc2ccccc12)c1cc(=O)c2ccccc2o1, the survival was inactive: 52%. COc1ccc(NC(=O)CSc2nc(-c3ccccc3)nc3cc(=O)[nH]n23)cc1 was tested, and the survival was inactive: 69%. CC(C)CCn1c(Br)nc2c1c(=O)n(Cc1ccccc1)c(=O)n2C was tested, and the survival was inactive: 83%. For CSc1ncc(C(=O)Nc2ccccc2C(=O)c2ccccc2)c(C)n1, the survival was inactive: 64%. For CN(CCC#N)C(=O)C1CCN(S(=O)(=O)c2ccc(-n3cnnn3)cc2)CC1, the survival was inactive: 91%. In the case of CC(C)(C)c1ccc(NC(=O)CSc2nnc3scc(-c4ccccc4)n23)cc1, the survival was active: 41%. In the case of CCC(=O)Nc1ccc(-c2nc3c(C)cccc3c(=O)o2)cc1, the survival was inactive: 94%. In the case of Cc1nc2cccnc2n1-c1cccc(C(=O)NCCc2ccc(Cl)cc2)c1, the survival was inactive: 77%.
